# Results taken from ChEMBL document CHEMBL4888484, “Replenishing the malaria drug discovery pipeline: Screening and hit evaluation of the MMV Hit Generation Library 1 (HGL1) against asexual blood stage Plasmodium falciparum ,using a nano luciferase reporter read-out” (2022).
# The campaign covered roughly 150,000 compounds. About 540 (0.36%) showed an effect of 50% or more. Some of the results follow.
# Test system: Plasmodium falciparum
# Assay: Primary screen in NF54 nanoGlo assay, in single point, at 2uM, 72h; a lower Z score goes with more inhibition
# Type: functional, Erythrocyte
# Settings: timepoint 72 hour
SMILES,% Inhibition [%],Z score
O=C(N[C@H](CO)Cc1ccccc1)c1ccc(F)cc1-n1cnnn1,-14,1.8
COc1cc(NC2CCCN(C(=O)C3C4CCCCC43)C2)cc(OC)c1 (stereo unspecified),-7,0.71
Cc1cc(F)ccc1C(=O)NCc1nnc(C)n1C1CC1,-2,0.34
CNc1ncc(CN(C)C(=O)Nc2cc(NC(=O)COC)ccc2C)cn1,5,-0.92
Cn1cnc2cc(CNC(=O)c3ccsc3)ccc21,-17,1.67
Cc1csc(NC(=O)NC2CCCC2n2ccnc2)n1 (stereo unspecified),-6,0.75
COCCN(C)C(=O)c1cnn(-c2ncc3c(n2)-c2ccccc2CCC3)c1COC,-25,3.28
CCC(C)C(C(=O)Nc1nc(CCC2CCCC2)n[nH]1)n1cnnn1 (stereo unspecified),-6,0.83
C=CCN1CC[C@@]2(CCC1=O)CN(Cc1ccnc3ccccc13)CCN2C,-1,0.1
CN(C)C[C@]1(O)CCCN(Cc2cnc3c(-c4ccccc4)cnn3c2)C1,-1,0.28
COc1ccc(S(=O)(=O)N[C@H]2CO[C@@H](CN3CCN(c4cccc(C(F)(F)F)c4)CC3)[C@@H]2O)cc1,-4,0.56
CCC1Oc2cc(C(C)NCCc3csc(C)n3)ccc2NC1=O (stereo unspecified),4,-0.37
CC(C)(C)C(=O)N1CCC[C@H](Oc2cc(C#N)ccn2)C1,10,-1.09
Cc1cc(C(=O)NC2CC(OCc3ccccc3)C2)on1 (stereo unspecified),-6,1.06
Cc1cc(=O)n(CCN(Cc2c(C)nn(C)c2C)C(C)C)c(=O)[nH]1,-15,2.32
CN(Cc1ncnn1C)S(=O)(=O)c1c(F)cccc1Cl,3,-0.35
O=C1C[C@@H](C(=O)Nc2nccs2)Oc2ccc(Cl)cc21,32,-3.63
CCN1CCN(C(=O)N[C@@H](C)C(=O)OC)c2cccnc21,3,-0.49
CNC(=O)C1CCCCC1NCC(O)C(F)(F)F (stereo unspecified),-11,1.87
Cc1ccc(C)c(NC(=O)c2ccccc2OCc2csc(C)n2)c1,-2,0.31
CC(=O)N1CCC(Nc2ncnc3sccc23)CC1,29,-3.96
Cc1csc(-c2cc(S(=O)(=O)Nc3ccc(S(N)(=O)=O)cc3)c(C)n2C)n1,-7,0.82
CC(C(=O)NC(C)(C)C)N1CCCC(C(=O)N2CCCCCC2)C1 (stereo unspecified),-8,0.86
O=C1c2c(nc3ccccc3c2-c2ccccc2)CN1Cc1ccccc1,-43,5.1
CC(C)N(c1ccccc1)c1ccc(NC(=O)COC(=O)c2cccc(S(=O)(=O)N3CCCc4ccccc43)c2)cc1,-16,1.61
O=C(Nc1ccc(C2OC(=O)N(Cc3ccc(F)cc3)C2C(=O)Nc2ccccc2)cc1)c1ccc(F)cc1 (stereo unspecified),-7,0.94
COC(C(=O)N1C[C@H](OC)[C@@H](O)C1)c1ccccc1C(F)(F)F (stereo partly specified),-11,1.63

SMILES,% Inhibition [%],Z score
O=C(COc1ccc2oc3ccccc3c2c1)NC1CCN(Cc2ccccc2)CC1,-5,0.86
Cc1ccsc1CN(Cc1ccccc1)C(=O)CN(C(=O)CCc1ccccc1)C1CCCCC1,-4,0.59
O=S1(=O)NC2C3CC(CC31)C2OCc1ccc(F)c(Cl)c1 (stereo unspecified),11,-1.48
O=C(Nc1n[nH]c2c(Cl)cccc12)[C@@H]1CCCN1C1CCOCC1,-3,0.37
COc1cc(-c2cc(CN(C[C@H]3CCCO3)C(=O)Cc3ccccc3)no2)cc(OC)c1OC,-14,1.33
Cc1cccc(C(=O)N2[C@H](C(=O)NCCN(C)C)COC23CCN(C(=O)c2cccc(F)c2)CC3)c1,-12,1.13
Clc1ccc2nc(N3CCCCC3)cc(-c3ccccc3)c2c1,-9,1.59
C[C@@H](C(=O)Nc1cc(C(F)(F)F)c[nH]c1=O)n1cc(Cl)cn1,33,-4.41
Cc1ccc(C(N)=O)cc1OCC(C)C,1,-0.08
Cc1cnccc1NCCNS(=O)(=O)c1cc(C(N)=O)cs1,-15,2.54
COc1cccc(C(=O)Nc2c3c(nc4ccccc24)CCCC3)c1,1,-0.12
CNc1ncc(CN(C)S(=O)(=O)NCc2ccccc2)cn1,-12,2.18
CC(C)c1ncc(NS(=O)(=O)c2cn(C)nc2C2CCCC2)cn1,3,-0.53
CC(C)(C)OC(=O)N[C@@H]1COC[C@@H]1n1cc(N)cn1,5,-0.39
COc1cccc(Cn2c(=O)c3sccc3n(CC(=O)NC3CCCC3)c2=O)c1,23,-2.55
COC(=O)N1CCC[C@H](Nc2ccc(C#N)nc2)C1,-4,0.56
Cc1cc(CCNC(=O)[C@@H]2CCc3cc(Br)ccc32)on1,-7,0.94
CC(=O)N[C@H]1CCN(c2nc3c(s2)c(C)nn3C)C1,5,-0.6
Cc1ncoc1CNC(=O)[C@H]1CC(=O)N(C)[C@@H]1c1ccc(F)cc1,-4,0.49
Cc1cc(CN(C)C(=O)c2[nH]nc(C(C)C)c2Br)no1,-15,1.69
O=C(Nc1nccs1)C1CCCN(C(=O)C2CCCc3ccccc32)C1 (stereo unspecified),-1,0.15
CC(NC1CCN(C(=O)COc2ccccc2)C1)c1cc2ccncc2s1 (stereo unspecified),-3,0.48
CCOc1ncccc1C(=O)N1CCCC[C@H]1c1cc(C(N)=O)[nH]n1,9,-1.17
Cc1cc(NC(=O)c2ccoc2)n(C)n1,-6,1.24
Cc1nc(-c2cccc(NC(=O)CN3CCC[C@H]3c3ccccc3)c2)cs1,-3,0.35
C=CCOCCNC(=O)N[C@H]1CCCC12CCOCC2,0,-0.06
